# Some of the results follow. Rule as the data show it: active = 3.2 or more and inactive = the rest. The signal is at background level for most entries.
# Legend:
# Experiment in all cases: enrichment score (SH2-bound / input frequency) (ratio); bacterial display of known human phosphotyrosine sites (pTyr-Var adds point mutants) read by sequencing; higher = stronger binding; tyrosines were phosphorylated by kinases first
# Conditions in all cases: peptide library: pTyr-Var
# SHP2 C-SH2 domain E139D = target: SHP2 C-SH2 domain E139D
# [1] = target: SHP2 C-SH2 domain wild-type
# SHP2 N-SH2 domain L43F = target: SHP2 N-SH2 domain L43F
# SHP2 N-SH2 domain T42A = target: SHP2 N-SH2 domain T42A
# SHP2 N-SH2 domain T52S = target: SHP2 N-SH2 domain T52S
# [2] = target: SHP2 N-SH2 domain wild-type
# 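Also: displayed peptides selected on beads carrying the immobilized SH2 domain, with library peptides lacking any tyrosine serving as negative controls.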
Binder,enrichment score (SHP2 C-SH2 domain E139D),enrichment score [1],enrichment score (SHP2 N-SH2 domain L43F),enrichment score (SHP2 N-SH2 domain T42A),enrichment score (SHP2 N-SH2 domain T52S),enrichment score [2]
DEEDFYQGSME [ASCC1_Y36],inactive: 0.712,inactive: 1.11,inactive: 0.644,inactive: 0.494,inactive: 0.466,inactive: 0.725
LKGQVDILGRE [ASS1_Y359_Y359D],inactive: 1.03,inactive: 0.92,inactive: 1.48,inactive: 1.12,inactive: 1.15,inactive: 1.29
ATDLAYYLVRE [ASL_Y375_K380E],inactive: 0.774,inactive: 1.14,inactive: 0.648,inactive: 1.65,inactive: 0.614,inactive: 0.979
QSSALYEDRYL [ASS1_Y83],inactive: 0.664,inactive: 0.55,inactive: 0.714,inactive: 0.686,inactive: 0.728,inactive: 1.05
WTAHSYRMGSA [ARHGEF7_Y785_T790A],inactive: 1.02,inactive: 1,inactive: 1.01,inactive: 0.819,inactive: 0.992,inactive: 1
RGFDTYFGYLL [ARSB_Y165],inactive: 0.871,inactive: 1.25,inactive: 0.735,inactive: 0.801,inactive: 0.956,inactive: 0.94
REGDKYVSHGA [ASS1_Y113_A111D],inactive: 0.665,inactive: 0.328,inactive: 0.456,inactive: 0.35,inactive: 0.641,inactive: 0.504
RETSLYKACER [ASB2_Y162_P160S],inactive: 0.615,inactive: 0.711,inactive: 0.448,inactive: 0.595,inactive: 0.555,inactive: 0.599
QSSALYEDCYL [ASS1_Y83_R86C],inactive: 1.02,inactive: 0.938,inactive: 0.806,inactive: 0.847,inactive: 0.929,inactive: 1.16
IHFAIYFLKYS [ARMC9_Y107_L108F],active: 3.37,inactive: 2.74,inactive: 2.55,inactive: 2.58,inactive: 3.09,inactive: 2.15
LGPDGYSTVDR [ARVCF_Y901],inactive: 0.618,inactive: 0.742,inactive: 0.558,inactive: 0.861,inactive: 0.572,inactive: 0.54
NDLMEYPKQHG [ASS1_Y163_A164P],inactive: 0.687,inactive: 0.748,inactive: 0.645,inactive: 0.611,inactive: 0.732,inactive: 0.664
QSSALYEDRFL [ASS1_Y83_YF],inactive: 0.676,inactive: 0.881,inactive: 0.926,inactive: 0.494,inactive: 0.593,inactive: 1.1
PRLLRYLQLDF [ASB10_Y457],active: 3.37,active: 3.66,active: 11.3,active: 13.5,active: 13.3,active: 6.32
LKGQVYILGQE [ASS1_Y359_R363Q],inactive: 1.28,inactive: 1.15,inactive: 1.33,inactive: 1.14,inactive: 1.35,inactive: 0.965
FAELVYTGFWH [ASS1_Y322],inactive: 1.72,inactive: 1.5,inactive: 1.41,inactive: 1.53,inactive: 1.69,inactive: 1.64
EKDSNYCLCRT [ASIC2_Y357],inactive: 0.638,inactive: 0.545,inactive: 0.564,inactive: 0.502,inactive: 0.538,inactive: 0.608
DLFRLYICVKE [ARID1B_Y1091_V1092I],inactive: 0.631,inactive: 1.04,inactive: 0.741,inactive: 0.566,inactive: 0.843,inactive: 1.22
LKGQVYILVRE [ASS1_Y359_G362V],inactive: 0.723,inactive: 0.544,inactive: 0.728,inactive: 0.672,inactive: 0.546,inactive: 0.558

Binder,enrichment score (SHP2 C-SH2 domain E139D),enrichment score [1],enrichment score (SHP2 N-SH2 domain L43F),enrichment score (SHP2 N-SH2 domain T42A),enrichment score (SHP2 N-SH2 domain T52S),enrichment score [2]
AGTILYHAHLD [ASS1_Y291],inactive: 1.62,inactive: 1.39,inactive: 1.29,inactive: 1.18,inactive: 1.54,inactive: 1.54
REGAKYVSHGT [ASS1_Y113_A118T],inactive: 0.495,inactive: 0.433,inactive: 0.405,inactive: 0.393,inactive: 0.461,inactive: 0.601
IHFAIYFLKFS [ARMC9_Y107_L108F_YF],inactive: 2.98,inactive: 2.95,inactive: 2.86,inactive: 2.73,inactive: 2.18,inactive: 2.42
AGTILYHAHLG [ASS1_Y291_D296G],inactive: 1.47,inactive: 1.96,inactive: 1.54,inactive: 1.62,inactive: 1.58,inactive: 1.46
LKVQVYILGRE [ASS1_Y359_G356V],inactive: 1.74,inactive: 1.27,inactive: 1.87,inactive: 1.38,inactive: 2.05,inactive: 1.16
REGAKYVSHGA [ASS1_Y113],inactive: 0.745,inactive: 0.506,inactive: 0.564,inactive: 0.422,inactive: 0.419,inactive: 0.632
KKCTRYIDCDL [ASPA_Y64],inactive: 0.897,inactive: 0.838,inactive: 1.06,inactive: 1.23,inactive: 0.919,inactive: 0.796
PSGPMYRGAVP [ASAH1_Y43_T42M],inactive: 0.737,inactive: 0.665,inactive: 0.654,inactive: 0.677,inactive: 0.764,inactive: 0.715
QSSALYEDHYL [ASS1_Y83_R86H],inactive: 0.338,inactive: 0.475,inactive: 0.443,inactive: 0.388,inactive: 0.368,inactive: 0.48
PSGPTYRGAVP [ASAH1_Y43],inactive: 0.605,inactive: 0.695,inactive: 0.657,inactive: 0.476,inactive: 0.516,inactive: 0.591
AGTILSHAHLD [ASS1_Y291_Y291S],inactive: 1.04,inactive: 0.98,inactive: 1.05,inactive: 0.881,inactive: 1.29,inactive: 1.19
RTLTHYKSAVK [ASNS_Y555],inactive: 0.557,inactive: 0.622,inactive: 0.665,inactive: 0.611,inactive: 0.558,inactive: 0.72
DEENFYQGSME [ASCC1_Y36_D34N],inactive: 0.81,inactive: 0.724,inactive: 0.707,inactive: 0.58,inactive: 0.813,inactive: 0.872
KKCTRYIDCAL [ASPA_Y64_D68A],inactive: 1.16,inactive: 1.46,inactive: 1.04,inactive: 1.11,inactive: 1.09,inactive: 1.01
LYEDRYLLGPS [ASS1_Y87_T91P],inactive: 0.94,inactive: 0.879,inactive: 0.777,inactive: 0.718,inactive: 1.23,inactive: 0.833
LKGQVYILGWE [ASS1_Y359_R363W],inactive: 2.37,inactive: 2.53,inactive: 2.68,inactive: 2.42,inactive: 2.98,inactive: 2.83
LFEDCYLLGTS [ASS1_Y87_R86C_YF],inactive: 0.938,inactive: 1.04,inactive: 0.93,inactive: 0.862,inactive: 0.883,inactive: 0.99
AGTIPYHAHLD [ASS1_Y291_L290P],inactive: 1.24,inactive: 1.12,inactive: 1.25,inactive: 1.06,inactive: 1.09,inactive: 1.14

# Reference: the supplement of paper PMC10369915
